No constants are given. Whether binding was seen depends on the method and setting. In cells and extracts the contact can be indirect. Some results given as binding are weak or reduced against the parent protein; the word gives no strength. Where a sequence is shown, tags or fusion partners need not be part of it.
How the values were obtained:
[1] = biological target: Flag-tagged histone deacetylase 6 (HDAC6) (human) (UniProt Q9UBN7); assay: co-IP; HEK293T cells co-transfected with tagged plasmids; lysed in IP buffer (20 mM Tris, pH 7.5, 150 mM NaCl, 1% Triton X-100) with protease/deacetylase/phosphatase inhibitors; anti-tag antibody (FLAG, HA) at 4 °C overnight, Protein A/G magnetic beads, Western blotting; in Fig. 4C with or without co-expressed Flag-HDAC6
[2] = biological target: HA-tagged stimulator of interferon genes (STING), full length (human), Q86WV6; assay: as above; conditions: remark: other sources report otherwise

Amino acid sequences for entries named in this document (tags omitted).
UniProt Q9UBN7: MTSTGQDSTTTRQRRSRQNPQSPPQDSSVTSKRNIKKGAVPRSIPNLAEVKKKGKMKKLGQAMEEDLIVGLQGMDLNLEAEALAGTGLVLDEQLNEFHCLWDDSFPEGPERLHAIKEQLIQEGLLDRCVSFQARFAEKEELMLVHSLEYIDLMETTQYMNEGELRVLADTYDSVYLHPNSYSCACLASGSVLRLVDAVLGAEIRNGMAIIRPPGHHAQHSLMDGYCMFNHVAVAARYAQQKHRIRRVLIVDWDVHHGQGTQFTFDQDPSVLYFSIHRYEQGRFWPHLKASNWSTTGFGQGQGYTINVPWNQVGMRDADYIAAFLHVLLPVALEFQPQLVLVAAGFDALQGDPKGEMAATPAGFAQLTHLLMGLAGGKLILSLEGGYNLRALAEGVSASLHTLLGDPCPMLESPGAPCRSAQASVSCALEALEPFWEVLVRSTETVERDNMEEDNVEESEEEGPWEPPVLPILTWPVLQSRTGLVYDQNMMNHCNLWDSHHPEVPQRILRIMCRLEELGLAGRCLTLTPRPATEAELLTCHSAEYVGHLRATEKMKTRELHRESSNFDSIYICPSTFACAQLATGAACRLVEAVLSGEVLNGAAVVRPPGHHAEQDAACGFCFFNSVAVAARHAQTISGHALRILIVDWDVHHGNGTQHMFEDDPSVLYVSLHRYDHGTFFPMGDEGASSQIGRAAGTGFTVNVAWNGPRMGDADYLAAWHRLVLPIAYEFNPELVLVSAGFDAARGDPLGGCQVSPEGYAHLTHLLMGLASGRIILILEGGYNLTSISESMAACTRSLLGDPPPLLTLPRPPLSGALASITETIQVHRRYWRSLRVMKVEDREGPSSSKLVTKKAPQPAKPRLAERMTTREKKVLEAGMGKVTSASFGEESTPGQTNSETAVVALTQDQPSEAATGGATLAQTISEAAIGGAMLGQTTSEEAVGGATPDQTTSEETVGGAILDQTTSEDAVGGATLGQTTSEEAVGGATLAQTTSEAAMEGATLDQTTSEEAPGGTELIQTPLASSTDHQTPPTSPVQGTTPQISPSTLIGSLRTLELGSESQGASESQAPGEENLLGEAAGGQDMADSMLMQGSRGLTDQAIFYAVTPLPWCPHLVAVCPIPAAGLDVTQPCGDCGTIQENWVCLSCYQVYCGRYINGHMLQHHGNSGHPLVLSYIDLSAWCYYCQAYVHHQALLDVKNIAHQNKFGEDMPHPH

B1: HA-tagged TBK1 (enzyme, UniProt Q9UHD2 1-729)
chain: MQSTSNHLWLLSDILGQGATANVFRGRHKKTGDLFAIKVFNNISFLRPVDVQMREFEVLKKLNHKNIVKLFAIEEETTTRHKVLIMEFCPCGSLYTVLEEPSNAYGLPESEFLIVLRDVVGGMNHLRENGIVHRDIKPGNIMRVIGEDGQSVYKLTDFGAARELEDDEQFVSLYGTEEYLHPDMYERAVLRKDHQKKYGATVDLWSIGVTFYHAATGSLPFRPFEGPRRNKEVMYKIITGKPSGAISGVQKAENGPIDWSGDMPVSCSLSRGLQVLLTPVLANILEADQEKCWGFDQFFAETSDILHRMVIHVFSLQQMTAHKIYIHSYNTATIFHELVYKQTKIISSNQELIYEGRRLVLEPGRLAQHFPKTTEENPIFVVSREPLNTIGLIYEKISLPKVHPRYDLDGDASMAKAITGVVCYACRIASTLLLYQELMRKGIRWLIELIKDDYNETVHKKTEVVITLDFCIRNIEKTVKVYEKLMKINLEAAELGEISDIHTKLLRLSSSQGTIETSLQDIDSRLSPGGSLADAWAHQEGTHPKDRNVEKLQVLLNCMTEIYYQFKKDKAERRLAYNEEQIHKFDKQKLYYHATKAMTHFTDECVKKYEAFLNKSEEWIRKMLHLRKQLLSLTNQCFDIEEEVSKYQEYTNELQETLPQKMFTASSGIKHTMTPIYPSSNTLVEMTLGMKKLKEEMEGVVKELAENNHILERFGSLTMDGGLRNVDCL
How did the binding [1] turn out when B1 was run?
Its binding is “binds”.

B2: Myc-tagged TBK1, Q9UHD2 1-729 (enzyme)
chain: B1 chain
B2 was tested. Which binding [2] did it give?
Its binding is “binds”.

From article PMC12666567
